By IC50 is meant the dose at which the fit gives 50% viability; a fit beyond the top or the lowest dose is shown as a bound at that dose. AUC sums up the same curve from the lowest dose to the 256-fold higher top dose; the more sensitive the line, the further below 1. Where the top dose is marked as inferred, it was calculated from the reported fits.
Assays:
Test in all cases: Viability of human cancer cell lines after 72 h of drug (GDSC screen)
[1] = compound: Nc1cccc2c1CN(C1CCC(=O)NC1=O)C2=O [Lenalidomide]; conditions: top dose 5 µM; top dose inferred
Experimental: (§1)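 Human cancer cell lines in 384-well plates, medium with 10% serum, drug for 72 h over a 256-fold dose range (nine 2-fold or five 4-fold steps up to the top dose). Adherent lines were fixed and stained with the nucleic acid dye Syto60, suspension lines read with resazurin; signal relative to control wells, capped at 0 and 100%. One two-parameter sigmoid per drug and line, fitted in a mixed model over all curves with the slope shared within a line.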

[2] = compound: CC(C)N(CCCNC(=O)Nc1ccc(C(C)(C)C)cc1)C[C@H]1O[C@@H](n2cc(Br)c3c(N)ncnc32)[C@H](O)[C@@H]1O [SGC0946]; conditions: top dose 0.5 µM; top dose inferred
Experimental: as §1

[3] = compound: CCC/C=C/C=C/C(=O)O[C@H]1/C(=C/C(=O)OC)C[C@H]2C[C@H]([C@@H](C)O)OC(=O)C[C@H](O)C[C@@H]3C[C@H](OC(C)=O)C(C)(C)[C@](O)(C[C@@H]4C/C(=C/C(=O)OC)C[C@H](/C=C/C(C)(C)[C@]1(O)O2)O4)O3 [Bryostatin 1]; conditions: top dose 0.008 µM; top dose inferred
Experimental: as §1

[4] = compound: COc1ccc(COc2ccc(Cc3cnc(N)nc3N)cc2OC)cc1 [GW-2580]; conditions: top dose 20 µM; top dose inferred
Experimental: as §1

MKN7 (stomach, adherent)
AUC [1]: 0.979
IC50 [1]: > 5 µM
AUC [2]: 0.982
IC50 [2]: > 0.5 µM

A549 (lung adenocarcinoma, adherent)
AUC [1]: 0.962
IC50 [1]: > 5 µM
AUC [2]: 0.965
IC50 [2]: > 0.5 µM

SUP-B8 (B-cell leukaemia, suspension)
AUC [1]: 0.987
IC50 [1]: > 5 µM
AUC [2]: 0.987
IC50 [2]: > 0.5 µM

NCC010 (kidney, adherent)
AUC [1]: 0.986
IC50 [1]: > 5 µM
AUC [2]: 0.971
IC50 [2]: > 0.5 µM

KATOIII (stomach, semi-adherent)
AUC [1]: 0.99
IC50 [1]: > 5 µM
AUC [2]: 0.985
IC50 [2]: > 0.5 µM

DIFI (large intestine, adherent)
AUC [1]: 0.987
IC50 [1]: > 5 µM
AUC [2]: 0.971
IC50 [2]: > 0.5 µM

NCI-H1573 (lung adenocarcinoma, adherent)
AUC [3]: 0.99
IC50 [3]: > 0.008 µM
AUC [4]: 0.978
IC50 [4]: > 20 µM
AUC [2]: 0.989
IC50 [2]: > 0.5 µM

PC-3 (prostate, adherent)
AUC [3]: 0.983
IC50 [3]: > 0.008 µM
AUC [4]: 0.975
IC50 [4]: > 20 µM
AUC [2]: 0.981
IC50 [2]: > 0.5 µM

786-0 (kidney, adherent)
AUC [3]: 0.905
IC50 [3]: > 0.008 µM
AUC [4]: 0.973
IC50 [4]: > 20 µM
AUC [2]: 0.984
IC50 [2]: > 0.5 µM

NCI-H460 (large cell lung carcinoma, adherent)
AUC [3]: 0.967
IC50 [3]: > 0.008 µM
AUC [4]: 0.987
IC50 [4]: > 20 µM
AUC [2]: 0.989
IC50 [2]: > 0.5 µM

MCF7 (breast, adherent)
AUC [3]: 0.936
IC50 [3]: > 0.008 µM
AUC [4]: 0.982
IC50 [4]: > 20 µM
AUC [2]: 0.971
IC50 [2]: > 0.5 µM

769-P (kidney, adherent)
AUC [3]: 0.94
IC50 [3]: > 0.008 µM
AUC [4]: 0.955
IC50 [4]: > 20 µM
AUC [2]: 0.976
IC50 [2]: > 0.5 µM

TGBC24TKB (biliary tract, adherent)
AUC [3]: 0.989
IC50 [3]: > 0.008 µM
AUC [4]: 0.974
IC50 [4]: > 20 µM
AUC [2]: 0.989
IC50 [2]: > 0.5 µM

HCC1806 (breast, adherent)
AUC [3]: 0.958
IC50 [3]: > 0.008 µM
AUC [4]: 0.989
IC50 [4]: > 20 µM
AUC [2]: 0.988
IC50 [2]: > 0.5 µM

RD (rhabdomyosarcoma, adherent)
AUC [3]: 0.956
IC50 [3]: > 0.008 µM
AUC [4]: 0.984
IC50 [4]: > 20 µM
AUC [2]: 0.983
IC50 [2]: > 0.5 µM

SN12C (kidney, adherent)
AUC [3]: 0.957
IC50 [3]: > 0.008 µM
AUC [4]: 0.98
IC50 [4]: > 20 µM
AUC [2]: 0.974
IC50 [2]: > 0.5 µM

HO-1-N-1 (head and neck, adherent)
AUC [3]: 0.987
IC50 [3]: > 0.008 µM
AUC [4]: 0.986
IC50 [4]: > 20 µM
AUC [2]: 0.988
IC50 [2]: > 0.5 µM

CAL-62 (thyroid, adherent)
AUC [3]: 0.942
IC50 [3]: > 0.008 µM
AUC [4]: 0.983
IC50 [4]: > 20 µM
AUC [2]: 0.978
IC50 [2]: > 0.5 µM

BHY (head and neck, adherent)
AUC [3]: 0.972
IC50 [3]: > 0.008 µM
AUC [4]: 0.971
IC50 [4]: > 20 µM
AUC [2]: 0.985
IC50 [2]: > 0.5 µM

THP-1 (acute myeloid leukaemia, suspension)
AUC [3]: 0.988
IC50 [3]: > 0.008 µM
AUC [4]: 0.97
IC50 [4]: > 20 µM
AUC [2]: 0.99
IC50 [2]: > 0.5 µM

BEN (non-small cell lung carcinoma, adherent)
AUC [3]: 0.941
IC50 [3]: > 0.008 µM
AUC [4]: 0.971
IC50 [4]: > 20 µM
AUC [2]: 0.985
IC50 [2]: > 0.5 µM

H2803 (mesothelioma, adherent)
AUC [3]: 0.976
IC50 [3]: > 0.008 µM
AUC [4]: 0.968
IC50 [4]: > 20 µM
AUC [2]: 0.979
IC50 [2]: > 0.5 µM

MKN1 (stomach, adherent)
AUC [3]: 0.98
IC50 [3]: > 0.008 µM
AUC [4]: 0.983
IC50 [4]: > 20 µM
AUC [2]: 0.985
IC50 [2]: > 0.5 µM

SK-MEL-28 (melanoma, adherent)
AUC [3]: 0.983
IC50 [3]: > 0.008 µM
AUC [4]: 0.983
IC50 [4]: > 20 µM
AUC [2]: 0.987
IC50 [2]: > 0.5 µM

NCI-H196 (small cell lung carcinoma, adherent)
AUC [3]: 0.985
IC50 [3]: > 0.008 µM
AUC [4]: 0.945
IC50 [4]: > 20 µM
AUC [2]: 0.94
IC50 [2]: > 0.5 µM

SK-LU-1 (lung adenocarcinoma, adherent)
AUC [3]: 0.944
IC50 [3]: > 0.008 µM
AUC [4]: 0.977
IC50 [4]: > 20 µM
AUC [2]: 0.979
IC50 [2]: > 0.5 µM

CAL-54 (kidney, adherent)
AUC [3]: 0.939
IC50 [3]: > 0.008 µM
AUC [4]: 0.976
IC50 [4]: > 20 µM
AUC [2]: 0.983
IC50 [2]: > 0.5 µM

H2804 (mesothelioma, adherent)
AUC [3]: 0.968
IC50 [3]: > 0.008 µM
AUC [4]: 0.972
IC50 [4]: > 20 µM
AUC [2]: 0.982
IC50 [2]: > 0.5 µM

NCI-H2085 (lung adenocarcinoma, adherent)
AUC [3]: 0.985
IC50 [3]: > 0.008 µM
AUC [4]: 0.983
IC50 [4]: > 20 µM
AUC [2]: 0.985
IC50 [2]: > 0.5 µM

A172 (glioma, adherent)
AUC [3]: 0.988
IC50 [3]: > 0.008 µM
AUC [4]: 0.984
IC50 [4]: > 20 µM
AUC [2]: 0.987
IC50 [2]: > 0.5 µM

OCI-LY7 (B-cell lymphoma, suspension)
AUC [1]: 0.975
IC50 [1]: > 5 µM

NCI-H2170 (lung squamous cell carcinoma, adherent)
AUC [3]: 0.958
IC50 [3]: > 0.008 µM
AUC [4]: 0.985
IC50 [4]: > 20 µM
AUC [2]: 0.986
IC50 [2]: > 0.5 µM

ML-1 (thyroid, adherent)
AUC [3]: 0.908
IC50 [3]: > 0.008 µM
AUC [4]: 0.98
IC50 [4]: > 20 µM
AUC [2]: 0.982
IC50 [2]: > 0.5 µM

TCCSUP (bladder, adherent)
AUC [3]: 0.956
IC50 [3]: > 0.008 µM
AUC [4]: 0.985
IC50 [4]: > 20 µM
AUC [2]: 0.983
IC50 [2]: > 0.5 µM

Daudi (Burkitt lymphoma, suspension)
AUC [3]: 0.99
IC50 [3]: > 0.008 µM
AUC [4]: 0.991
IC50 [4]: > 20 µM
AUC [2]: 0.982
IC50 [2]: > 0.5 µM

H2591 (mesothelioma, adherent)
AUC [3]: 0.982
IC50 [3]: > 0.008 µM
AUC [4]: 0.981
IC50 [4]: > 20 µM
AUC [2]: 0.98
IC50 [2]: > 0.5 µM

KYSE-180 (oesophagus, adherent)
AUC [3]: 0.982
IC50 [3]: > 0.008 µM
AUC [4]: 0.984
IC50 [4]: > 20 µM
AUC [2]: 0.987
IC50 [2]: > 0.5 µM

SU-DHL-4 (B-cell lymphoma, suspension)
AUC [3]: 0.997
IC50 [3]: > 0.008 µM
AUC [4]: 0.997
IC50 [4]: > 20 µM
AUC [2]: 0.997
IC50 [2]: > 0.5 µM

— the supplement of paper PMC4967469
